# According to the supplement of paper PMC6531468:
# This is one part of the list. Values come from read counts of a selection and are noisy. Each score is taken over the longer molecules that contain the sequence shown.
# Test system: IMP3 KH1-2
# Test: 6-mer SELEX enrichment z-score vs GST control; IMP3 is the RNA-binding protein IGF2BP3; higher = more enriched by binding
# Details: construct: KH1-2 (164-376); SELEX round: R4
# Experimental: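 SELEX-seq with GST-tagged IMP3 KH1-2 (Pro164-Phe376) and an N40 RNA pool, round 4 (stringent 300/600 mM KCl washes). 6-mer z-score of sequence-tag enrichment normalised to the corresponding GST SELEX round; RNA k-mers written as DNA (T for U).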
# Chain of IMP3 KH1-2 (chain, as listed by the source): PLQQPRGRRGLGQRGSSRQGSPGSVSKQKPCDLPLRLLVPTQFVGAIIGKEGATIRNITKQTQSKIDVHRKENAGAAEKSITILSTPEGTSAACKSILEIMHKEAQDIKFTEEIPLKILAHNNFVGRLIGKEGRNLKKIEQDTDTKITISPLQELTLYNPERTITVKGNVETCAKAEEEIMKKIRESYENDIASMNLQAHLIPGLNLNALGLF
row,Sequence,6-mer SELEX enrichment z-score
1,TTTGTA,0.161
2,ATCCGG,-0.226
3,TGTATC,-0.21
4,AGAGCA,-1.07
5,TTACCG,-0.037
6,ATAGCC,-0.035
7,GTCTTT,0.055
8,GCTGGT,-0.064
9,GAAATC,-0.714
10,GCAACT,-0.125
11,TAATGA,0.703
12,AGGCCT,-0.041
13,TAAAGA,0.24
14,TCATAC,1.36
15,ACCAAA,-2.14
16,TGTTGT,0.063
17,TGATGC,-0.211
18,TAGATA,0.515
19,CCATAG,0.209
20,ACACTC,0.022

row,Sequence,6-mer SELEX enrichment z-score
1,CCCGGC,-0.426
2,GCAACG,-0.472
3,ATGCTG,0.485
4,AACAGT,0.363
5,GCATCC,0.178
6,AACTCC,-0.448
7,TAGTTT,-0.111
8,AACCGA,-2.13
9,ATTTGG,0.069
10,TCTGTC,0.428
11,CTATTA,1.04
12,CATGGG,0.426
13,CGGTTG,-0.086
14,CGTAGT,-1.05
15,TATAGG,0.706
16,GTCATA,0.322
17,GGCCCC,0.84
18,AAAGAT,0.447
19,CCCCCA,1.02
20,TATAAA,1.25
